# From publication PMC5323044
# Amino acid sequences for entries named in this document (tags omitted). Residues count along the entry.
# UniProt Q01097, residues 27-1482: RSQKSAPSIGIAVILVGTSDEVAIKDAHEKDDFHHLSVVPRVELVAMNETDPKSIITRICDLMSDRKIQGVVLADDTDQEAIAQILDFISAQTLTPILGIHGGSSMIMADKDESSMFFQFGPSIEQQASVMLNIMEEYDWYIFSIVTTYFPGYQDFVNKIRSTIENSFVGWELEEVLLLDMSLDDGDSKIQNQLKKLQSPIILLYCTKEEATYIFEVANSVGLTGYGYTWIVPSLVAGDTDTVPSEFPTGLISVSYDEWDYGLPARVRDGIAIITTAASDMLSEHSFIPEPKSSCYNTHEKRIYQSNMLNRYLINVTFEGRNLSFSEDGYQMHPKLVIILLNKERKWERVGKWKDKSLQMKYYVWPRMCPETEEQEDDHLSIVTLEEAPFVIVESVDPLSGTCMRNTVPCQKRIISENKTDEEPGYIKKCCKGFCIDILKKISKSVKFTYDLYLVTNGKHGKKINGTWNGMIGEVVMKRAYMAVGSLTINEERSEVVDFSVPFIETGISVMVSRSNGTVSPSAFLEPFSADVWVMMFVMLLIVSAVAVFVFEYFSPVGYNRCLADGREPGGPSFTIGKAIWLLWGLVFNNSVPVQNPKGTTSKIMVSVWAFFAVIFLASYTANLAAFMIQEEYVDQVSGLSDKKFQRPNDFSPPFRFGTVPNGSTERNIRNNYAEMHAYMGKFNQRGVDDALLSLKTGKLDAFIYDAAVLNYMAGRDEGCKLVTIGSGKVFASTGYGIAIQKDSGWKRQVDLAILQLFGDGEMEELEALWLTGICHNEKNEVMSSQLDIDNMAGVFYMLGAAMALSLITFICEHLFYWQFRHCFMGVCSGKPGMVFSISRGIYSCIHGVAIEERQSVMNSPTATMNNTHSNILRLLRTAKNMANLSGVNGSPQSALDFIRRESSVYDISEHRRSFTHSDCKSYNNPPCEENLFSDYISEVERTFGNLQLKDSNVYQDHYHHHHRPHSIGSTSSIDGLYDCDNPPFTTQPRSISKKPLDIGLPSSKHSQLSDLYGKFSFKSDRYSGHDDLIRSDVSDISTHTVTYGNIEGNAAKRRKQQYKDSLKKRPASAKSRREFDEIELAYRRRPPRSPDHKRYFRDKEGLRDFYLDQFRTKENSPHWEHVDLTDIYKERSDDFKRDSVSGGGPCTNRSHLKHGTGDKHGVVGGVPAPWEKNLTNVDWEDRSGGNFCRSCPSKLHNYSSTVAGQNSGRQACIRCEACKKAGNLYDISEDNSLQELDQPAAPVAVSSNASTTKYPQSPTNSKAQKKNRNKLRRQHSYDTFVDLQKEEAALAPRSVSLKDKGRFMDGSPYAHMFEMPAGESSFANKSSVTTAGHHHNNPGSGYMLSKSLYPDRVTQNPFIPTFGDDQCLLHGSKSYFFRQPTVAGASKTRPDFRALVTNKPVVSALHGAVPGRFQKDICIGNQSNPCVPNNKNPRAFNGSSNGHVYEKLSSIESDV
# UniProt O08788: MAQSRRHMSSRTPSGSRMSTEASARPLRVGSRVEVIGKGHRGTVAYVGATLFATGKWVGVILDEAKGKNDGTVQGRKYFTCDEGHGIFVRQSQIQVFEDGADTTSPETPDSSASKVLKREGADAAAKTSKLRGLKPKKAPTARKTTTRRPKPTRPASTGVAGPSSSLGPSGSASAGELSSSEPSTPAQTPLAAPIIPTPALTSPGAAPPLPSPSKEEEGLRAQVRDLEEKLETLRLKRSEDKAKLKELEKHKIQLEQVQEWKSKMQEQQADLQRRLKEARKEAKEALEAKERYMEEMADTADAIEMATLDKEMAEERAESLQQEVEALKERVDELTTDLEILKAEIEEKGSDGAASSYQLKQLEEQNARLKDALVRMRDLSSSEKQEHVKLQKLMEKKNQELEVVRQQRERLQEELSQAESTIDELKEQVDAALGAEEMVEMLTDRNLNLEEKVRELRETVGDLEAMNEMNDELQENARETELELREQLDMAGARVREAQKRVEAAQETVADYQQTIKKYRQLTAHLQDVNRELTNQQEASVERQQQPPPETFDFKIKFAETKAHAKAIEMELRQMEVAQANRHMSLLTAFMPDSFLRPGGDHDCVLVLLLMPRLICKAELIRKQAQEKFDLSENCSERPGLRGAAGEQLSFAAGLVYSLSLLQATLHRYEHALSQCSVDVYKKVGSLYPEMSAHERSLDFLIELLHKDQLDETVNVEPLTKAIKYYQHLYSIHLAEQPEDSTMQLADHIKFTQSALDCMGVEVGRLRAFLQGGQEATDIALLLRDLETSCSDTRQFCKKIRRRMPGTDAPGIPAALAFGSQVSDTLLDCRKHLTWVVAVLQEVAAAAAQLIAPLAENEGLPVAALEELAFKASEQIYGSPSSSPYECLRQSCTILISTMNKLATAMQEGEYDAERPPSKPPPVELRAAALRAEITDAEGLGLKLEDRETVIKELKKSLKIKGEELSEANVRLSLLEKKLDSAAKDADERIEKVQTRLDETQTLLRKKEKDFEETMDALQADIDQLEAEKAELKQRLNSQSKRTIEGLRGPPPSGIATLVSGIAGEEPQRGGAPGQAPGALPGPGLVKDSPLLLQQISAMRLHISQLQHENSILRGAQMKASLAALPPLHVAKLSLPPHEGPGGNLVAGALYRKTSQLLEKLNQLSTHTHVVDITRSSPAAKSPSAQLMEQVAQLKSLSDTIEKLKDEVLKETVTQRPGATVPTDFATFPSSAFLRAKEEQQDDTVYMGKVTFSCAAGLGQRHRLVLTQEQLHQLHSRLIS
# These are yes or no findings as the source states them, for the method shown. For some of these results: In cells and extracts the contact can be indirect. Some results given as binding are weak or reduced against the parent protein; the word gives no strength. For some of these results: Sequences can lack the tags named with a protein.
# T1: SNX6 (endogenous, mouse brain) (mouse (endogenous in brain)) (UniProt Q6P8X1)
# T1 sequence: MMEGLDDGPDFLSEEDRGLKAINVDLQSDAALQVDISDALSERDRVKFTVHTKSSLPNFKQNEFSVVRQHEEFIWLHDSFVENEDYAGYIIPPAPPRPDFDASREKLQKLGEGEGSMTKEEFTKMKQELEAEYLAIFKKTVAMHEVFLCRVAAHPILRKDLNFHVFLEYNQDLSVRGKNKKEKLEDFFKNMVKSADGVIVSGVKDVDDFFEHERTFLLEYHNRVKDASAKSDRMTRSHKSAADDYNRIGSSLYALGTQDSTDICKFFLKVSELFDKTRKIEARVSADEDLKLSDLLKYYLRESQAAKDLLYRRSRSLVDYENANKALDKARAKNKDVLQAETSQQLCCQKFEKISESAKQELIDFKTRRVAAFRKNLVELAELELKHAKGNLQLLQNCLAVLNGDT
# T2: GST-SNX6-N (aa 1-181) (UniProt Q9UNH7)
# T2 sequence: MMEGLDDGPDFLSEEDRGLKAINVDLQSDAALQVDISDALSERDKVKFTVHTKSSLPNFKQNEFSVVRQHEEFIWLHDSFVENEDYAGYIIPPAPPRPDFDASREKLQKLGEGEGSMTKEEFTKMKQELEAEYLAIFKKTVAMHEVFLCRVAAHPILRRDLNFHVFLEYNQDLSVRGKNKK
# T3: Flag-tagged SNX6 (full length) (UniProt Q9UNH7)
# T3 sequence: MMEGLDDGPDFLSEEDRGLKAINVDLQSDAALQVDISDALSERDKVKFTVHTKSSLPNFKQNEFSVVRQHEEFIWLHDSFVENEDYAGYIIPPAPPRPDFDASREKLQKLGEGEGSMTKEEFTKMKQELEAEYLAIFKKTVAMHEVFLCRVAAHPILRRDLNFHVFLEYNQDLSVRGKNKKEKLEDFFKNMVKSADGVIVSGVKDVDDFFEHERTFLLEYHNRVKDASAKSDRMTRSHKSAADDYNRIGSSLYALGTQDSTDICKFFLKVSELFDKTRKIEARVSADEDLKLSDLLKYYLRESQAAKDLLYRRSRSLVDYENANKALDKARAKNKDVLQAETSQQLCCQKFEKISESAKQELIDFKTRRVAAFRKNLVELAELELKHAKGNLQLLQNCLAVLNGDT
# What was measured:
# [1] = target: T1, SNX6 (endogenous, mouse brain) (mouse (endogenous in brain)); experiment: immunoisolation of vesicles (membrane IP); membrane fraction (p100) of mouse brain lysate, buffer without detergent (0.25 M sucrose, 150 mM NaCl); mouse anti-SNX6 antibody coupled to Dynabeads Protein G; immunoblotting
# GST-SNX6-N (aa 1-181) = target: T2, GST-SNX6-N (aa 1-181); experiment: pull-down; in vitro binding assay: 2 μg of recombinant His-sumo-Homer protein incubated with GST, GST-SNX1-N or GST-SNX6-N immobilized on glutathione-Sepharose beads overnight at 4°C; immunoblotting; both purified
# [2] = target: T3, Flag-tagged SNX6 (full length); experiment: co-IP; lysates of HEK293T cells overexpressing Flag-SNX6 and mEmerald-Homer1c (0.5% NP-40, 150 mM NaCl); IP with Flag M2 beads, blots with antibodies to Flag and Homer1b/c
Molecule,binding [1],binding (GST-SNX6-N (aa 1-181)),further results
"GluN2B subunit of NMDAR (endogenous, mouse brain) (from UniProt Q01097 27-1482) (receptor)",no binding,–,–
"p150^Glued (endogenous, mouse brain) (from UniProt O08788 1-1281)",binds,–,–
"GluN2A subunit of NMDAR (endogenous, mouse brain) (from UniProt P35436 23-1464) (receptor)",no binding,–,–
"His-sumo-Homer1c-FL (protein, UniProt Q9Z2Y3 1-366) MGEQPIFSTRAHVFQIDPNTKKNWVPTSKHAVTVSYFYDSTRNVYRIISLDGSKAIINSTITPNMTFTKTSQKFGQWADSRANTVYGLGFSSEHHLSKFAEKFQEFKEAARLAKEKSQEKMELTSTPSQESAGGDLQSPLTPESINGTDDERTPDVTQNSEPRAEPTQNALPFPHSAGDRTQALSHASSAISKHWEAELATLKGNNAKLTAALLESTANVKQWKQQLAAYQEEAERLHKRVTELECVSSQANAVHSHKTELNQTVQELEETLKVKEEEIERLKQEIDNARELQEQRDSLTQKLQEVEIRNKDLEGQLSDLEQRLEKSQNEQEAFRSNLKTLLEILDGKIFELTELRDNLAKLLECS",–,binds,–
"mEmerald-Homer1c (protein, UniProt Q9Z2Y3 1-366) MGEQPIFSTRAHVFQIDPNTKKNWVPTSKHAVTVSYFYDSTRNVYRIISLDGSKAIINSTITPNMTFTKTSQKFGQWADSRANTVYGLGFSSEHHLSKFAEKFQEFKEAARLAKEKSQEKMELTSTPSQESAGGDLQSPLTPESINGTDDERTPDVTQNSEPRAEPTQNALPFPHSAGDRTQALSHASSAISKHWEAELATLKGNNAKLTAALLESTANVKQWKQQLAAYQEEAERLHKRVTELECVSSQANAVHSHKTELNQTVQELEETLKVKEEEIERLKQEIDNARELQEQRDSLTQKLQEVEIRNKDLEGQLSDLEQRLEKSQNEQEAFRSNLKTLLEILDGKIFELTELRDNLAKLLECS",–,–,binding [2]: binds
"His-sumo-Homer2b (protein, UniProt Q9QWW1 1-354) MGEQPIFTTRAHVFQIDPSTKKNWVPASKQAVTVSYFYDVTRNSYRIISVDGAKVIINSTITPNMTFTKTSQKFGQWADSRANTVFGLGFSSELQLTKFAEKFQEVREAARLARDKSQEKTETSSNHSQESGCETPSSTQASSVNGTDDEKASHASPADTHLKSENDKLKIALTQSAANVKKWEMELQTLRESNARLTTALQESAASVEQWKRQFSICRDENDRLRSKIEELEEQCSEINREKEKNTQLKRRIEELESEVRDKEMELKDLRKQSEIIPQLMSECEYVSEKLEAAERDNQNLEDKVRSLKTDIEESKYRQRHLKGELKSFLEVLDGKIDDLHDFRRGLSKLGTDN",–,no binding (tested: 2 μg of protein),–
"His-sumo-Homer3 (protein, UniProt Q99JP6-2 1-359) MSTAREQPIFSTRAHVFQIDPTTKRNWIPAGKHALTVSYFYDATRNVYRIISIGGAKAIINSTVTPNMTFTKTSQKFGQWADSRANTVYGLGFASEQQLTQFAEKFQEVKEAARLAREKSQDGGEFTSTGLALASHQVPPSPLVSTNGPGEEKLFRSQSADTPGPTERERLKKMLSEGSVGEVQWEAEFFALQDSNQRLAGALREANAAATQWRQQLEVQRAEAELLRQRVAELEAQVAVEPVRAGEKEATSQSVEQLEARVQTKDQEIQTLKNQSTGTREAPDTAEREETQQQVQDLETRNAELEQQLRSMECNLEEARAERERARAEVGRAAQLLDVRLFELSELREGLARLAEAAP",–,no binding (tested: 2 μg of protein),–
